Experimental data as given in PubChem BioAssay (NCATS).
Several values for one entry are separate records, joined by “and”; a condition that tells them apart may be missing. Equal values may be shown once. The inconclusive results got no clear call from the source; some entries with a clear call stand among them for comparison. For some of these results: No potency is given beside an inconclusive call; the fits are too rough. Activity calls are given as the source filed them. Unless noted, the call rests on the fitted dose curve; in most records, active means well fitted inhibition curve with a large enough effect; inconclusive means small, poorly fitted or top-dose-only effect; inactive means flat fitted curve, though single readings scatter.

Target: Ubiquitin carboxyl-terminal hydrolase 1 (Homo sapiens) (UniProt O94782)
Assay: Inhibitors of USP1/UAF1: Pilot qHTS (AID 504865); further: potency means the concentration at half of the fitted maximal effect;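 further: rhodamine fluorescence freed from ubiquitin-rhodamine substrate followed over time; nearly all actives have a fitted effect of over 35% in size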; on activity change, negative = inhibition: top concentration of the series differs between compounds; on the % scale 0 is the no-effect control and ±100 the full control effect
Details: purified USP1/UAF1, Ub-rhodamine cleavage fluorescence; series mostly up to 114 µM; activity change, negative = inhibition: at the top concentration
Procedure, shortened: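 Deubiquitinase activity followed as kinetic rhodamine fluorescence release from 150 nM Ub-Rho. 1 nM USP1/UAF1 with compound, after 15 min room-temperature preincubation, in HEPES pH 7.8 buffer containing TCEP, EDTA, BSA and Tween-20.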
Tags describe the fitted curve by direction and shape or compound fluorescence and quenching.

UniProt O94782, sequence (O94782 whole entry, looked up): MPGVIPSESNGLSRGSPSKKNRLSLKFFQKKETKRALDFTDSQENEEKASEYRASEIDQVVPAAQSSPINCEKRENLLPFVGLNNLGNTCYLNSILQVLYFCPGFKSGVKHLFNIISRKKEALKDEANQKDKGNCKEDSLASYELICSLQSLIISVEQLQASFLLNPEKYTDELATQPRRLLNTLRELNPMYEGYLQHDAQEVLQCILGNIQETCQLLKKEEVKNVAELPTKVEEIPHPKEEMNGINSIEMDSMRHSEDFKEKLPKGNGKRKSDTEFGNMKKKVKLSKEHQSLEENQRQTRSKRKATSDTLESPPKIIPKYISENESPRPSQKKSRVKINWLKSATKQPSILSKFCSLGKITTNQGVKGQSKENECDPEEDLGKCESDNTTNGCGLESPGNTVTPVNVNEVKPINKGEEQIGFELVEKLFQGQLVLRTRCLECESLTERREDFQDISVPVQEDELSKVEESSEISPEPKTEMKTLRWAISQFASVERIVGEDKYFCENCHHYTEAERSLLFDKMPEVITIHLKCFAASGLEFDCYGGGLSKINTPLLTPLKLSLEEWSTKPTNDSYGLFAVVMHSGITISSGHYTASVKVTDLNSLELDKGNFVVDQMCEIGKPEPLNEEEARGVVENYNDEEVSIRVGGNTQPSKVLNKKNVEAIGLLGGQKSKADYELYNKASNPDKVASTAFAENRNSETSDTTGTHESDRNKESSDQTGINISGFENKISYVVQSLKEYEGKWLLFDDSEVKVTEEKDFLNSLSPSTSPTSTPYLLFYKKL

Structure (SMILES)	Potency	activity change, negative = inhibition
CCOC(=O)c1ccc(OC(=O)CCCCCN=C(N)N)cc1	inactive	–
COc1cc(O)c2c(c1)C(=O)c1cc(C)cc(O)c1C2=O	inconclusive [inhibitor, partial curve]	–
C[C@@H](NCCCc1cccc(C(F)(F)F)c1)c1cccc2ccccc12	inconclusive [inhibitor, partial curve]	–
Cc1cccc(C)c1OCC(=O)N[C@@H](Cc1ccccc1)[C@@H](O)C[C@H](Cc1ccccc1)NC(=O)[C@H](C(C)C)N1CCCNC1=O	inconclusive [inhibitor, partial curve]	–
CCOC(=O)C1=C(O)C(=O)N(Cc2ccccc2)C1	inconclusive [inhibitor, partial curve, poor fit]	–
Cc1cc(=O)c2c(O)c3c(O)cc(=O)c4c3c3c(cc(O)c1c23)C(C)(C)C=4O	inconclusive [inhibitor, partial curve, poor fit]	–
CCCCCCCCCCCC(CC1OC(=O)C1CCCCCC)OC(=O)C(CC(C)C)NC=O (stereo unspecified)	inconclusive [inhibitor, full curve]	–
CCC(C)N(C)C(=O)c1cc2ccccc2c(-c2ccccc2Cl)n1 (stereo unspecified)	–	inactive: -10.1%
CN(CCOc1ccc(CC2SC(=O)NC2=O)cc1)c1ccccn1 (stereo unspecified)	inconclusive [inhibitor, partial curve, poor fit]	–
CCN(CCO)CCCC(C)Nc1ccnc2cc(Cl)ccc12 (stereo unspecified)	inactive	–
Cc1cc(O)c2c(c1)C(=O)c1cccc(O)c1C2=O	inconclusive [inhibitor, partial curve, poor fit]	–
CC(C)OC(=O)C(C(=O)OC(C)C)=C1SC=CS1	inconclusive [inhibitor, partial curve, poor fit]	–
Cc1cc(C2CCCCC2)n(O)c(=O)c1	inconclusive [inhibitor, partial curve, poor fit]	–
O=c1[nH]cnc2c1ncn2[C@H]1CC[C@@H](CO)O1	–	inactive: -3.85%
CN(C)CCc1c[nH]c2ccc(Cn3cncn3)cc12	–	inactive: -4.36%
CCCCC(C=O)NC(=O)C(CC(C)C)NC(=O)OCc1ccccc1 (stereo unspecified)	–	inactive: -11.8%
O=C(O)c1c(Cl)c(Cl)c(Cl)c(Cl)c1-c1c2cc(I)c(=O)c(I)c-2oc2c(I)c(O)c(I)cc12	active: 20 µM	–
CC1(C)CCC(C)(C)c2cc(NC(=O)c3ccc(C(=O)O)cc3)ccc21	inconclusive [inhibitor, partial curve, poor fit]	–
Nc1cc(C(Cl)=C(Cl)Cl)c(S(N)(=O)=O)cc1S(N)(=O)=O	inconclusive [inhibitor, partial curve, poor fit]	–
N#Cc1ccc(C(c2ccc(C#N)cc2)n2cncn2)cc1	inconclusive [inhibitor, partial curve, poor fit]	–
Clc1ccc(C(Cn2ccnc2)OCc2ccsc2Cl)c(Cl)c1 (stereo unspecified)	inconclusive [inhibitor, partial curve, poor fit]	–

Target: Estrogen receptor (Homo sapiens) (UniProt P03372)
Assay: qHTS assay for small molecule antagonists of estrogen receptor alpha signaling (AID 588513; active means well fitted curve in the direction sought with a large enough effect in the signal ratio, with a control signal flat, not every such curve was filed as active; inconclusive means small, poorly fitted or top-dose-only effect, or effect the other way, or a change in a side signal; inactive means no such curve, though single readings can be large or run the other way; the % refers to the signal ratio; further: potency means the concentration at half of the fitted maximal effect; on activity, negative = inhibition: on the % scale 0 is the no-effect control and ±100 the full control effect)
Details: ER-alpha-UAS-bla HEK293, beta-lactamase ratio, antagonist mode; activity, negative = inhibition: at 76.9 µM (top of the series) unless noted
Procedure, shortened: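 Antagonist mode: inhibition of 0.5 nM 17-beta-estradiol-driven beta-lactamase reporter in HEK 293 ER-alpha-UAS-bla cells, 18 h at 37C, CCF4 readout after 2 h at RT. Normalised to estradiol and DMSO; titration fitted to Hill.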

UniProt P03372, sequence (P03372 whole entry, looked up): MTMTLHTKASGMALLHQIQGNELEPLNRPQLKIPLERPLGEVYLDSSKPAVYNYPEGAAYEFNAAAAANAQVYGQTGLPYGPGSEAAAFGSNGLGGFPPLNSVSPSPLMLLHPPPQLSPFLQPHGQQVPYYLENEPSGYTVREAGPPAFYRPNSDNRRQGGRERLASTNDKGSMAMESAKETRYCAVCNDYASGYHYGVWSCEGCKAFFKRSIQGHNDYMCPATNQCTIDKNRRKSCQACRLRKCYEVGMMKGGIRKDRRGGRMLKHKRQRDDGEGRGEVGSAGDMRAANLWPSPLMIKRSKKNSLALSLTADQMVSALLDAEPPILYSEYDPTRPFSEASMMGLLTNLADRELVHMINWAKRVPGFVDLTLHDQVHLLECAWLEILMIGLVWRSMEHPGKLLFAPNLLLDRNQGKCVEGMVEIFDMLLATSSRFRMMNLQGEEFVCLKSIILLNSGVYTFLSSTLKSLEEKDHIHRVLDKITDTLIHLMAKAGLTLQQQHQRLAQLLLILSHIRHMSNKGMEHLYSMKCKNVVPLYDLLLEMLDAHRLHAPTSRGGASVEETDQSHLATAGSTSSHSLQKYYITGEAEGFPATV

Structure (SMILES)	Potency	activity, negative = inhibition
CCCc1cc(=O)[nH]c(=S)[nH]1	inactive	–
Cc1ncc([N+](=O)[O-])n1CCO	–	inactive: 6.11%
Cc1noc(NS(=O)(=O)c2ccc(N)cc2)c1C	–	inconclusive: -7.88%
CCc1nc(N)nc(N)c1-c1ccc(Cl)cc1	inconclusive [inhibitor, partial curve, poor fit]	–

Target: Estrogen receptor (Homo sapiens) (UniProt P03372)
Assay: qHTS assay for small molecule agonists of estrogen receptor alpha signaling (AID 588514; calls by dose curve;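 further: 0% = vehicle only and 100% = reference agonist; nearly all actives have a fitted effect of over 70% in size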)
Details: ER-alpha-UAS-bla HEK293, beta-lactamase ratio, 18 h, percent of full estradiol response, vehicle zero; at 76.8 µM (top of the series)
Procedure, shortened: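 Read-out: CCF4 fluorescence from a beta-lactamase reporter in ER-alpha-UAS-bla HEK 293 cells after 18 hrs of compound exposure at 37 C. Normalized to 20 nM 17-beta-estradiol (100%) and DMSO (0%).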

Structure (SMILES)	activation
CCCc1cc(=O)[nH]c(=S)[nH]1	inconclusive: 50.4%
CS(=O)(=O)OCCCCOS(C)(=O)=O	inconclusive: 78.6%
O=C(O)c1cc(=O)[nH]c(=O)[nH]1	inconclusive: 28.8%
Cc1cc(O)c2c(c1)C(=O)c1cccc(O)c1C2=O	inconclusive: 5.56%
O=c1[nH]cnc2c1ncn2[C@H]1CC[C@@H](CO)O1	inconclusive: -8.22%
O=C(N[C@H](CO)[C@H](O)c1ccc([N+](=O)[O-])cc1)C(Cl)Cl	inconclusive: 43.9% and inconclusive: 56.2%
